# This is one part of the list.
# What was measured:
# Experiment in all cases: glycan array binding signal (z-score within array); higher = stronger binding
# Settings in all cases: glycan notation: IUPAC condensed, linker removed
# [1] = target: GlcNAc(b1-3)Gal(b1-4)GlcNAc(b1-3)Gal(b1-4)GlcNAc(b1-3)Gal(b1-4)GlcNAc(b1-3)Gal(b1-4)GlcNAc(b1-2)[GlcNAc(b1-3)Gal(b1-4)GlcNAc(b1-3)Gal(b1-4)GlcNAc(b1-3)Gal(b1-4)GlcNAc(b1-3)Gal(b1-4)GlcNAc(b1-6)]Man(a1-6)[GlcNAc(b1-3)Gal(b1-4)GlcNAc(b1-3)Gal(b1-4)GlcNAc(b1-3)Gal(b1-4)GlcNAc(b1-3)Gal(b1-4)GlcNAc(b1-2)Man(a1-3)]Man(b1-4)GlcNAc(b1-4)[Fuc(a1-6)]GlcNAc
# In short: (§1)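 The Consortium for Functional Glycomics database supplied 3228 glycan arrays, of which those lacking an available protein sequence were dropped. The binding signal, a within-array Z-score, was averaged across arrays of the same protein sequence and across linkers. Negative scores can be read as non-binding.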
# [2] = target: GlcNAc(b1-3)Gal(b1-4)GlcNAc(b1-3)Gal(b1-4)GlcNAc(b1-3)GalNAc
# In short: as §1
# [3] = target: GlcNAc(b1-3)Gal(b1-4)GlcNAc(b1-3)GalNAc
# In short: as §1
# [4] = target: GlcNAc(b1-3)Gal(b1-4)GlcNAc(b1-3)[GlcNAc(b1-3)Gal(b1-4)GlcNAc(b1-3)]GalNAc
# In short: as §1
# [5] = target: GlcNAc(b1-3)Gal(b1-4)GlcNAc(b1-6)[Gal(b1-3)]GalNAc
# In short: as §1
# [6] = target: GlcNAc(b1-3)Gal(b1-4)GlcNAc(b1-6)[GlcNAc(b1-3)Gal(b1-3)]GalNAc
# In short: as §1
# [7] = target: GlcNAc(b1-3)Gal(b1-4)GlcNAc(b1-6)[GlcNAc(b1-3)]Gal(b1-4)GlcNAc
# In short: as §1
# [8] = target: GlcNAc(b1-3)GalNAc
# In short: as §1
# [9] = target: GlcNAc(b1-3)Man
# In short: as §1
# [10] = target: GlcNAc(b1-3)[GlcNAc(b1-4)][GlcNAc(b1-6)]GlcNAc
# In short: as §1
# [11] = target: GlcNAc(b1-3)[GlcNAc(b1-6)]Gal(b1-4)GlcNAc
# In short: as §1
# [12] = target: GlcNAc(b1-3)[GlcNAc(b1-6)]GalNAc
# In short: as §1
# [13] = target: GlcNAc(b1-4)Gal(b1-4)GlcNAc
# In short: as §1
# [14] = target: GlcNAc(b1-4)GlcNAc
# In short: as §1
# [15] = target: GlcNAc(b1-4)GlcNAc(b1-4)GlcNAc
# In short: as §1
# [16] = target: GlcNAc(b1-4)GlcNAc(b1-4)GlcNAc(b1-4)GlcNAc(b1-4)GlcNAc
# In short: as §1
# [17] = target: GlcNAc(b1-4)GlcNAc(b1-4)GlcNAc(b1-4)GlcNAc(b1-4)GlcNAc(b1-4)GlcNAc
# In short: as §1
# [18] = target: GlcNAc(b1-4)[GlcNAc(b1-6)]GalNAc
# In short: as §1
# [19] = target: GlcNAc(b1-6)Gal(b1-4)GlcNAc
# In short: as §1
# [20] = target: GlcNAc(b1-6)GalNAc
# In short: as §1
# [21] = target: GlcNAc6S(b1-3)Gal(b1-4)GlcNAc
# In short: as §1
# [22] = target: Kdn(a2-3)Gal(b1-3)GalNAc
# In short: as §1
# [23] = target: Kdn(a2-3)Gal(b1-3)GlcNAc
# In short: as §1
# [24] = target: Kdn(a2-3)Gal(b1-4)Glc
# In short: as §1
# [25] = target: Kdn(a2-3)Gal(b1-4)GlcNAc
# In short: as §1
# [26] = target: Kdn(a2-3)Gal(b1-4)[Fuc(a1-3)]GlcNAc
# In short: as §1
# [27] = target: Kdn(a2-6)Gal(b1-4)GlcNAc
# In short: as §1
# [28] = target: Man(a1-2)Man(a1-2)Man(a1-3)Man
# In short: as §1
# [29] = target: Man(a1-2)Man(a1-2)Man(a1-6)[Man(a1-3)]Man
# In short: as §1
# [30] = target: Man(a1-2)Man(a1-3)Man
# In short: as §1
# [31] = target: Man(a1-2)Man(a1-3)[Man(a1-2)Man(a1-6)]Man
# In short: as §1
# [32] = target: Man(a1-2)Man(a1-3)[Man(a1-2)Man(a1-6)]Man(a1-6)[Man(a1-2)Man(a1-2)Man(a1-3)]Man
# In short: as §1
# [33] = target: Man(a1-2)Man(a1-3)[Man(a1-2)Man(a1-6)]Man(a1-6)[Man(a1-2)Man(a1-2)Man(a1-3)]Man(b1-4)GlcNAc(b1-4)GlcNAc
# In short: as §1
# [34] = target: Man(a1-2)Man(a1-3)[Man(a1-6)]Man(a1-6)[Man(a1-2)Man(a1-3)]Man(b1-4)GlcNAc(b1-4)GlcNAc
# In short: as §1
# [35] = target: Man(a1-2)Man(a1-6)[Man(a1-3)]Man(a1-6)[Man(a1-2)Man(a1-2)Man(a1-3)]Man
# In short: as §1
# [36] = target: Man(a1-2)Man(a1-6)[Man(a1-3)]Man(a1-6)[Man(a1-2)Man(a1-2)Man(a1-3)]Man(b1-4)GlcNAc(b1-4)GlcNAc
# In short: as §1
# [37] = target: Man(a1-3)[Man(a1-6)]Man
# In short: as §1
# [38] = target: Man(a1-3)[Man(a1-6)]Man(a1-6)[Man(a1-2)Man(a1-3)]Man(b1-4)GlcNAc(b1-4)GlcNAc
# In short: as §1
# [39] = target: Man(a1-3)[Man(a1-6)]Man(a1-6)[Man(a1-3)]Man
# In short: as §1
# [40] = target: Man(a1-3)[Man(a1-6)]Man(a1-6)[Man(a1-3)]Man(b1-4)GlcNAc(b1-4)GlcNAc
# In short: as §1
# [41] = target: Man(a1-3)[Man(a1-6)]Man(b1-4)GlcNAc(b1-4)GlcNAc
# In short: as §1
# [42] = target: Man(a1-3)[Man(a1-6)]Man(b1-4)GlcNAc(b1-4)[Fuc(a1-6)]GlcNAc
# In short: as §1
# [43] = target: Man(a1-6)Man
# In short: as §1
# [44] = target: Man(b1-4)GlcNAc
# In short: as §1
# [45] = target: MurNAc(b1-4)GlcNAc
# In short: as §1
binder,measurement,setting,value
NKR-PIC (Mus musculus) (protein) GTGQKPSREKCCVFIQENLNKTTDCSVNLECPQDWLLHRDKCFHVSQVSNTWEEGQADCGRKGATLLLIQDQEELRFLLDSIKEKYNSFWIGLRFTLPDMNWKWINGTTFNSDVLKITGVTENGSCASILGDKVTPESCASDNRWICQKELNHETPSNDSGT,glycan array binding signal (z-score),[1],1.81
same,glycan array binding signal (z-score),[2],-0.361
same,glycan array binding signal (z-score),[3],-0.306
same,glycan array binding signal (z-score),[4],-0.181
same,glycan array binding signal (z-score),[5],-0.312
same,glycan array binding signal (z-score),[6],-0.336
same,glycan array binding signal (z-score),[7],3.36
same,glycan array binding signal (z-score),[8],-0.321
same,glycan array binding signal (z-score),[9],-0.325
same,glycan array binding signal (z-score),[10],-0.116
same,glycan array binding signal (z-score),[11],1.2
same,glycan array binding signal (z-score),[12],-0.12
same,glycan array binding signal (z-score),[13],-0.249
same,glycan array binding signal (z-score),[14],3.11
same,glycan array binding signal (z-score),[15],4.83
same,glycan array binding signal (z-score),[16],2.15
same,glycan array binding signal (z-score),[17],4.62
same,glycan array binding signal (z-score),[18],1.37
same,glycan array binding signal (z-score),[19],2.38
same,glycan array binding signal (z-score),[20],0.849
same,glycan array binding signal (z-score),[21],-0.053
same,glycan array binding signal (z-score),[22],-0.288
same,glycan array binding signal (z-score),[23],-0.298
same,glycan array binding signal (z-score),[24],-0.305
same,glycan array binding signal (z-score),[25],-0.346
same,glycan array binding signal (z-score),[26],-0.345
same,glycan array binding signal (z-score),[27],-0.321
same,glycan array binding signal (z-score),[28],-0.291
same,glycan array binding signal (z-score),[29],-0.394
same,glycan array binding signal (z-score),[30],-0.25
same,glycan array binding signal (z-score),[31],-0.264
same,glycan array binding signal (z-score),[32],-0.259
same,glycan array binding signal (z-score),[33],-0.285
same,glycan array binding signal (z-score),[34],-0.325
same,glycan array binding signal (z-score),[35],-0.367
same,glycan array binding signal (z-score),[36],-0.366
same,glycan array binding signal (z-score),[37],-0.357
same,glycan array binding signal (z-score),[38],-0.311
same,glycan array binding signal (z-score),[39],-0.401
same,glycan array binding signal (z-score),[40],-0.374
same,glycan array binding signal (z-score),[41],-0.292
same,glycan array binding signal (z-score),[42],-0.37
same,glycan array binding signal (z-score),[43],-0.327
same,glycan array binding signal (z-score),[44],-0.273
same,glycan array binding signal (z-score),[45],4.79
